Hit rate of the full screen: of about 360,000 compounds, about 25,000 (6.9%) were called active. The inconclusive results got no clear call from the source; some entries with a clear call stand among them for comparison. Calls come from the whole dose curve; as a rule, active = well fitted inhibition curve with a large enough effect; inconclusive = small, poorly fitted or top-dose-only effect; inactive = flat fitted curve, though single readings scatter. A potency beside an inconclusive call is a rough fit, not a confirmed value.
What follows are compounds tested against Luciferin 4-monooxygenase (Photinus pyralis) (UniProt P08659) (assay: qHTS profiling assay for firefly luciferase inhibitor/activator using purifed enzyme and Km concentrations of substrates (counterscreen for miR-21 project)). Conditions: purified FLuc, luminescence inhibition; activity change, negative = inhibition: at 57.5 µM (top of the series).
UniProt P08659, sequence (P08659 whole entry, looked up): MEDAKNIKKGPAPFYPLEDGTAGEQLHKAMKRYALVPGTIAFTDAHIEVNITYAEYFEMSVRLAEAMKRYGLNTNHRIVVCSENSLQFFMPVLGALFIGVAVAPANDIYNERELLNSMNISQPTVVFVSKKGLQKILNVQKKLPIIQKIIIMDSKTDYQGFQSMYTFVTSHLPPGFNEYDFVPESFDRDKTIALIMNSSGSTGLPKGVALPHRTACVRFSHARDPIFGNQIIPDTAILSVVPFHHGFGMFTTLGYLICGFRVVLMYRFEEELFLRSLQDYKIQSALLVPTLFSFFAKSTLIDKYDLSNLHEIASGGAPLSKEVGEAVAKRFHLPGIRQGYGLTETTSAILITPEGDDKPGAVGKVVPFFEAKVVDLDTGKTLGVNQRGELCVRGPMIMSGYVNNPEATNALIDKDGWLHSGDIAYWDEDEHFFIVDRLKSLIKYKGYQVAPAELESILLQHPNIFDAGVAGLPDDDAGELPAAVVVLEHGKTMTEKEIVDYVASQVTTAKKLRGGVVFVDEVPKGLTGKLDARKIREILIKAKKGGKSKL
Method in brief: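 Purified P. pyralis luciferase (10nM final) with 10uM D-luciferin and 10uM ATP (Km levels) in 50mM Tris acetate pH 7.5, 10mM Mg acetate, 0.01% Tween-20, 0.05% BSA; qHTS 6-point titration, ~60 µM downward; luminescence read.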
Note: nearly all actives have a fitted effect of over 55% in size.
Potency is the fitted concentration of half-maximal effect; tags give direction and shape of the fitted curve.
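Throughout, for activity change, negative = inhibition: plate controls were vehicle for no effect and reference inhibitor for full effect.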

Structure (SMILES) | Potency | activity change, negative = inhibition
N/C(=N\OC(=O)COc1ccc2ccccc2c1)c1ccccn1 | inconclusive: 23.9 µM [inhibitor, partial curve, poor fit] | 
CCC(CC)C(=O)N1CC(=O)Nc2ccc(F)cc2C1c1ccc(F)cc1 (stereo not given) |  | inactive: 0.533%
CCC(C)(C)n1nnnc1C(c1cc2cc(C)cc(C)c2[nH]c1=O)N1CCN(C(=O)c2ccco2)CC1 (stereo not given) | inconclusive: 21.3 µM [inhibitor, partial curve, poor fit] | 
CC(C)NC(=O)CN1C(=O)CSc2ccc(S(=O)(=O)N3CCCC3)cc21 |  | inactive: -0.247%
O=C(CCCn1c2ccccc2c(=O)c2ccccc21)Nc1cccc(Cl)c1 | inconclusive: 9.53 µM [inhibitor, partial curve, poor fit] | 
Cc1ccc(C(=O)Nc2ccc3c(c2)OCO3)o1 | active: 10.7 µM | 
N/C(Cc1cccc2ccccc12)=N\O |  | inactive: -1.01%
Cc1cccc(NS(=O)(=O)c2cc(Cl)ccc2Cl)n1 |  | inactive: -3.29%
COc1ccc(C(=O)NCCc2ccc(S(N)(=O)=O)cc2)cc1OC | inconclusive: 21.3 µM [inhibitor, single point] | 
Cc1cc(C)cc(C(=O)Nc2cccc(NC(=O)c3ccco3)c2)c1 | inconclusive: 21.3 µM [inhibitor, single point] | 
O=C(NC(=S)NCCO)c1cn(-c2ccccc2)nc1-c1ccccc1 | inconclusive: 23.9 µM [inhibitor, partial curve] | 
O=C(Nc1ccc(C(F)(F)F)cc1)c1ccc2nc[nH]c2c1 | inconclusive: 19 µM [inhibitor, partial curve] | 
CC1CCCN(CCCNC(=O)c2cc(Sc3ccc(F)cc3)nc3ccccc23)C1 (stereo not given) |  | inactive: -3.33%
COc1ccc2cc(C(=O)C3CCCN(C(=O)c4csnn4)C3)ccc2c1 (stereo not given) | inconclusive: 37.9 µM [inhibitor, partial curve, poor fit] | 
O=C1c2ccccc2C(=O)C1c1ccc(Br)cc1 | active: 6.01 µM | 
CN(C(=O)COc1ccccc1C(=O)NCCc1ccccc1)c1ccccc1 | inconclusive: 19 µM [inhibitor, partial curve] | 
Cc1cccc2sc(NC(=O)C3CCN(C(=O)c4ccco4)CC3)nc12 | inconclusive: 30.1 µM [inhibitor, partial curve, poor fit] | 
Cc1c(C(=O)N/N=C/c2ccc(O)c(Br)c2)sc(N)c1C#N | active: 13.5 µM | 
Cc1ccnc(NCc2cccc3ccccc23)c1 | inconclusive: 16.9 µM [inhibitor, partial curve] | 
N#Cc1c(-c2ccc(F)cc2)ccnc1N1CCOCC1 | inconclusive: 37.9 µM [inhibitor, partial curve, poor fit] | 
COc1ccc2cc(-c3nc4ccccc4n3C)c(=O)oc2c1 | active: 5.36 µM | 
Cc1ccccc1NC(=O)Cn1cc(C(=O)c2ccco2)c2ccccc21 |  | inactive: -6.4%
O=C(/C=C/c1ccco1)NC(=S)Nc1ccc(C(=O)O)cc1 | inconclusive: 21.3 µM [inhibitor, single point] | 

Structure (SMILES) | Potency | activity change, negative = inhibition
Cc1csc2ncc(C(=O)Nc3ccc4c(c3)OCCO4)c(=O)n12 | inconclusive: 2.69 µM [inhibitor, full curve] | 
COc1cc2c(cc1NC(=O)C(C)Sc1ccc(NC(C)=O)cc1)oc1ccccc12 (stereo not given) | inconclusive: 37.9 µM [inhibitor, single point] | 
Nc1nc(OCC2CCCCC2)c2[nH]cnc2n1 | inconclusive: 30.1 µM [inhibitor, partial curve, poor fit] | 
Cc1ccc(CN(C(=O)c2ccc(Cl)c([N+](=O)[O-])c2)C2CCS(=O)(=O)C2)o1 (stereo not given) | inconclusive: 30.1 µM [inhibitor, partial curve, poor fit] | 
COc1ccc(/C=N/NC(=O)CCCOc2ccc(Cl)cc2Cl)cc1 | inconclusive: 30.1 µM [inhibitor, single point] | 
COCCSc1nnc(NC(=O)c2ccco2)s1 | inconclusive: 19 µM [inhibitor, single point] | 
Cc1ccc(Cl)cc1-c1ccc(C=Nc2ccc(N3CCOCC3)cc2)o1 |  | inactive: -19.8%
CCc1nnc(NC(=O)CSc2ccc(-c3ccccc3OC)nn2)s1 | inconclusive: 10.7 µM [inhibitor, partial curve] | 
O=C(COC(=O)c1cccnc1Cl)Nc1nc(-c2ccccc2)cs1 | inconclusive: 37.9 µM [inhibitor, partial curve, poor fit] | 
CCN(CC)S(=O)(=O)c1cccc(C(=O)Nc2cccc(C)c2)c1 | inconclusive: 23.9 µM [inhibitor, partial curve] | 
CN1C(=O)CSc2ccc(NC(=O)NCCC3=CCCCC3)cc21 | inconclusive: 37.9 µM [inhibitor, partial curve, poor fit] | 
COc1ccc(Cn2c(O)c(C=Nc3ccc(OC)cc3)c3ccccc3c2=O)cc1 |  | inactive: -2.32%
CCCn1c(SCC(=O)c2ccc3c(c2)OCCO3)n[nH]c1=O | inconclusive: 21.3 µM [inhibitor, partial curve] | 
CCOC(=O)c1ccc(NC(=O)Cn2nc3c4ccccc4n(Cc4cccc(F)c4)cc-3c2=O)cc1 |  | inactive: 0.493%
O=C(CCn1c(=O)c2sccc2n(Cc2ccccc2F)c1=O)NCc1ccc2c(c1)OCO2 |  | inactive: 1.35%
COCCN(C(=O)c1ccco1)c1nnc(-c2ccc(OC)cc2)s1 | active: 21.3 µM | 
CCc1cccc(NC(=O)CCn2c(=O)c3cccn3c3cccnc32)c1 |  | inactive: 2.53%
C=CCn1c(SCC(=O)Nc2ccc(-c3nc4ccc(C)cc4s3)cc2)nnc1-c1ccccc1 | active: 2.39 µM | 
O=C(CCc1ccccc1)Nc1ccc(Cl)cn1 | inconclusive: 15.1 µM [inhibitor, partial curve] | 
CC(=O)c1ccc(NC(=S)Nc2cccc3cnccc23)cc1 | inconclusive: 37.9 µM [inhibitor, partial curve, poor fit] | 
CCOC(=O)CSc1nc2ccccc2c(=O)n1NC(=O)c1ccccc1 | inconclusive: 10.7 µM [inhibitor, partial curve] | 
Cc1ccc(NCc2nc(SCC(=O)Nc3ccccc3)n[nH]2)cc1 | inconclusive: 23.9 µM [inhibitor, single point] | 
